Over roughly 33,000 sequences, “E-score (-0.5 to 0.5)” has its median near -0.012; the highest 2% begin near 0.27. The list shows a part of the results.
Biological target: T1, Vhr1 (UniProt P40522)
T1 sequence: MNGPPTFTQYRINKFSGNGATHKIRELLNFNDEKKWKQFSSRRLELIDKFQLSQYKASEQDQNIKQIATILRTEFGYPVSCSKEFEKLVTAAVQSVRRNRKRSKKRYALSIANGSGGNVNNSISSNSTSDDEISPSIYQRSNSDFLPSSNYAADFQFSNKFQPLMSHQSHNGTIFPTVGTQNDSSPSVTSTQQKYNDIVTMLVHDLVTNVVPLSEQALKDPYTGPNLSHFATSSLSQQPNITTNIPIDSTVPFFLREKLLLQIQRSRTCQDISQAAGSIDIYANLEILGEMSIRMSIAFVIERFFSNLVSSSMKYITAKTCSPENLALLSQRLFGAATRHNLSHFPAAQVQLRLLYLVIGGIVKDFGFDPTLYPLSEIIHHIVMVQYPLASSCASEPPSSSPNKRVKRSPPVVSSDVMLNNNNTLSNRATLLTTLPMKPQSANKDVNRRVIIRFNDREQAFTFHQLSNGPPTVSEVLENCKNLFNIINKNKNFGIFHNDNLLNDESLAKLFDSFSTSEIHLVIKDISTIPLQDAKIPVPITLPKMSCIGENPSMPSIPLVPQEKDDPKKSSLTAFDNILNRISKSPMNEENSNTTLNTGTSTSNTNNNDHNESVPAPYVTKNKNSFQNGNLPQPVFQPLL
Assay: PBM E-score (8-mer binding enrichment) (E-score (-0.5 to 0.5)); higher = stronger / more preferred TF binding; most listed sequences are background and not binding sites
Details: protein concentration: 200 nM; construct: GST-full length
Procedure: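 Universal 'all 10-mer' protein binding microarrays (Agilent AMADID 015681) probed with GST-tagged S. cerevisiae TFs (full-length or DBD) made by in vitro transcription/translation (PURExpress), about 100-200 nM. Bound TF was detected with fluorescent anti-GST. Each ungapped 8-mer (which stands for itself and its reverse complement) is scored by the PBM enrichment score (E-score), a modified Wilcoxon-Mann-Whitney statistic from -0.5 to +0.5, computed with the Universal PBM Analysis Suite. Scale: above 0.35 generally sequence-specific binding.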

Sequence | PBM E-score
CGGCTGAC | 0.156
CTTCTCGC | -0.146
GAGTGATC | 0.142
ATTTACGA | -0.107
ATCTGACC | 0.00776
TAGGCAGA | 0.0248
GCTGGGCA | 0.00419
AGGTCCTC | -0.0875
AGCGTGAA | -0.267
ACCAACTA | 0.0969
TCCGGAGA | -0.158
CATCATCG | 0.16
CCACCTAG | -0.0411
AAGACCGC | -0.213
CTGTAGAC | -0.0233
ATACTCGA | 0.148
CGCGCGCG | 0.286
TCGCTGCA | -0.0417
CTGGATTA | 0.0744
TTACACAA | 0.0848
TCCGCTAA | -0.189
ACCCTTCT | -0.153

Sequence | PBM E-score
CGCCGTCA | -0.0741
CGCTGTAC | 0.0335
ACATGGGC | 0.165
CACGGAAG | -0.026
GAGCGCGA | 0.217
AACGTAGC | -0.149
ATGACTTA | 0.349
GCTGCTCC | -0.159
CGAGGTCA | 0.0869
GCTCCCGA | -0.0166
CAAAATCA | -0.0188
TCTCAAGA | -0.247
CGTATGGC | 0.0157
GTCTTGGA | -0.0486
CCGCGCCC | 0.19
AAGAGTAC | -0.00642
AATAGAGC | -0.0508
GGCCCGGA | 0.102
AAGCATCA | 0.156
ACCACTTC | -0.0774
AACGCAAT | -0.0275
CGGTGTAG | 0.145

Sequence | PBM E-score
ATAGTACA | 0.258
AGCTGCGC | 0.0217
AGGGAAGG | -0.227
TAAATCTA | -0.202
CCATTCTC | -0.0852
ACTTGCGC | 0.0429
ATACGTGA | 0.0611
CCCAGCCA | 0.145
ATGTCTAG | 0.12
CCTCGGTA | -0.0693
ACGTCTTC | -0.0534
ACCTATGC | 0.0092
CGCGTTAG | -0.131
ATGAACTA | -0.0649
GATGGTGC | -0.392
AGGTGCTA | -0.262
AGGCCGGC | -0.0926
CCCGTTAG | -0.144
ATATGAAT | 0.0663
ACCCCAGC | 0.157
CCCGACAG | -0.00524
ATTACGAA | -0.0381

Sequence | PBM E-score
ACGCAAAC | 0.129
CGGCATAG | 0.0147
TATTTTAA | -0.0788
CCCATCAG | -0.156
CCAACCAC | 0.159
AACTCACA | 0.202
TCGGGCCA | 0.0209
ACTCTTTG | 0.0519
ACTACCCT | 0.12
ACCCTTAA | -0.166
AGCTGCAC | -0.0879
GACTCCAC | 0.346
CTAAGAAA | -0.112
GCAGGCAC | -0.0269
ACGACCGT | -0.169
AGGATCGC | 0.0461
CGAGTACA | 0.0863
ACCAACAC | 0.0868
CCGTCCAA | -0.0876
GGGCGGGA | 0.199
AGCGTTTG | -0.189
CGGAGTGC | 0.139

Sequence | PBM E-score
ACAGGGGT | -0.139
AGCAGCAA | 0.00345
AGATAGGA | -0.132
ACATCGAA | 0.144
AGGAGTAG | 0.0516
CAACAAGA | 0.073
AGGACCAA | -0.0137
AACTCCAA | 0.0433
CATAAAAG | -0.148
CCACCTAC | -0.017
AGCGTGCC | -0.106
ACTGGCTA | 0.0572
CTCAGTAC | 0.00485
GAGTTCCA | -0.0698
CGCCCCAA | 0.173
GCTGTCCC | -0.206
CGTTTCTC | -0.0242
AAAAGGAT | -0.123
GACGTCAC | 0.00621
ACCATAAC | 0.228
CCTCTGTC | -0.184
CACGTAAA | -0.322
